Out of some 330,000 compounds screened, about 7,700 (2.3%) were called active. Inconclusive results (about 26%) are left out. Calls follow the shape of the dose curve; as a rule, active = well fitted inhibition curve with a large enough effect; inconclusive = small, poorly fitted or top-dose-only effect, or effect the other way; inactive = flat fitted curve, though single readings scatter. Only a part is listed here, and it is no random draw.
test: qHTS screen for small molecules that inhibit ELG1-dependent DNA repair in human embryonic kidney (HEK293T) cells expressing luciferase-tagged ELG1; details: HEK293T ELG1-luciferase reporter, luminescence, 16 h, DNA damage induced by 5-fluorouridine; series mostly up to 46.1 µM; activity change, negative = inhibition: at the top concentration; also: nearly all actives have a fitted effect of over 55% in size
Source text: NIH Molecular Libraries Probe Production Network [MLPCN] NIH Chemical Genomics Center [NCGC] MLPCN Grant: 1 R03 MH092164-01 Assay Provider: Kyungjae Myung, NHGRI, NIH Keywords: MLPCN, qHTS, NCGC, genotoxicity, cancer Assay Overview: Cancer cells divide rapidly compared to normal cells in the body. During cell division, cancer cells need to duplicate their genome by DNA replication. The failure of genome duplication leads to cancer cells' death. Therefore, inhibitors of DNA replication could specifically kill cancer cells. Based on this concept, many chemotherapeutic agents were developed and have been used to treat cancer patients. However, there are a limited number of agents available in the clinical setting, and some of those that do exist have low efficacy and severe side effects. Therefore, if we can find the compounds that effectively block DNA replication either by directly damaging DNA or by inhibiting other cellular mechanisms, the options for cancer treatment will be broadened. With this in mind, we developed a quantitative high-throughput ELG1-luciferase reporter gene assay. Small molecules that specifically block ELG1 function in response to DNA damage can be identified by monitoring the suppression of luciferase activity. Since ELG1 defines a pathway for repairing DNA damage, agents blocking ELG1 function can be used to sensitize cancer cells to chemotherapeutic agents whose mechanism of action involves the induction of DNA damage.
Assay Protocol Summary: For genotoxicity screening, 2,000 cells in 4 uL/well were dispensed into white, solid-bottom 1536-well plates using a solenoid-based dispenser. Following transfer of 1 uL 5-Fluorouridine and 23 nL compound or DMSO vehicle by a pin tool, the plates were incubated 16 hr at 37 °C and 5% CO2. 5 ul ONE-Glo (Promega) was then added to each plate and following a 30 min incubation at room temperature, luciferase activity was quantified on a ViewLux CCD-based plate reader.
% is scaled to controls: 0 for no effect and ±100 for the full control effect; potency is read from the fitted curve at half-maximal effect.

SMILES | activity change, negative = inhibition | Potency
C=C(C)C1CC=C(C)/C(=N\NC(=O)CNc2ccccc2OC)C1 (stereo not drawn) | inactive: -9.23% | 
Cc1cc(C)cc(NCCC#N)c1 | inactive: -3.94% | 
O=C(C1=C[C@H](C2CCCCC2)C[C@H](OCc2ccc(CO)cc2)O1)N1CCN(Cc2ccc3c(c2)OCO3)CC1 | inactive: -13% | 
Cc1cc(C)nc(NS(=O)(=O)c2ccc(N/C=C\C(=O)c3ccc(Cl)cc3)cc2)n1 | inactive: -8.96% | 
COc1ccc2c(c1)OC[C@H]1[C@H]2N2C(=O)CN(CCc3c[nH]c4ccccc34)C(=O)[C@@]2(C)[C@H]1c1ccccc1 |  | active: 5.8 µM
COc1cc(NC(=O)CN2c3ccccc3CC2C)cc(OC)c1OC (stereo not drawn) |  | active: 16.4 µM
CC(=O)N1c2ccccc2[C@H](C)[C@H]1C | inactive: 27.8% | 
CCO[C@H]1OC(C(=O)NC2CC2)=C[C@@H](c2ccc(C(F)(F)F)cc2)[C@@H]1CCCO | inactive: 1.46% | 
O=C(C1=C[C@H](c2ccc(C(F)(F)F)cc2)C[C@H](OCCCCO)O1)N1CCN(Cc2ccccc2)CC1 | inactive: 1.73% | 
Cc1sc(N2C(=O)C3C4C=CC(C4)C3C2=O)c(C#N)c1C (stereo not drawn) | inactive: -0.627% | 
COC(=O)[C@@]12CCCCN1[C@H](c1ccc(-c3ccc(F)cc3)cc1)[C@@H]1C(=O)N(C)C(=O)[C@@H]12 | inactive: -29% | 
O=C(NC(Cc1ccccc1)C(=O)O)/C(=C\c1ccc(F)cc1)NC(=O)c1ccccc1 (stereo not drawn) | inactive: 6.78% | 
CC(=O)C[C@@H](O)CC(=O)[C@@H]1OC(=O)CC/C=C\Cc2ccccc21 | inactive: 2% | 
N=c1c2c(n(Cc3ccc(Cl)cc3)c3c1CCC3)CCC2 |  | active: 2.91 µM
CCOC(=O)[C@@H]1[C@H]2COc3cc(OC)ccc3[C@H]2N2C(=O)N(c3ccccc3)C(=O)[C@]12C | inactive: -12.6% | 
CN1CCN(C(=O)C2=C[C@H](c3ccccc3)C[C@H](OCc3ccc(CO)cc3)O2)CC1 | inactive: -1.55% | 
O=C(C[C@@H]1C/C=C/CC[C@@H](Cc2ccc(F)cc2)C(=O)OCCNC1=O)N[C@H](CO)Cc1ccccc1 | inactive: -16.9% | 
Cc1ccc(S(=O)(=O)N2CCOCC2)cc1C(=O)Nc1ccc(-c2cn3ccsc3n2)cc1 |  | active: 18.4 µM
O=C(CSc1ccc2nnc(-c3ccccc3)n2n1)N1CCCc2ccccc21 |  | active: 25.9 µM
c1ccc(-c2nnc(-c3ccccn3)nc2NC2CCCCC2)cc1 |  | active: 18.4 µM
COc1ccc2[nH]c3c4c(ccc3c2c1)C(=O)C=CC4=O |  | active: 16.4 µM
O=C(Cn1c[n+](CC(=O)c2ccc([N+](=O)[O-])cc2)cn1)c1ccc([N+](=O)[O-])cc1 | inactive: -10.4% | 

SMILES | activity change, negative = inhibition | Potency
CC(=O)C[C@H](O)CC(=O)[C@H]1OC(=O)CC/C=C\Cc2ccccc21 | inactive: 16.2% | 
COc1ccc(S(=O)(=O)N2CCC(C(=O)Nc3ccccc3C)CC2)c2cccnc12 |  | active: 18.4 µM
COc1ccc(S(=O)(=O)N(C)C[C@H]2Oc3c(NC(=O)Nc4c(C)noc4C)cccc3C(=O)N([C@@H](C)CO)C[C@H]2C)cc1 | inactive: -4.15% | 
Cc1cccc(Nc2nc(N)c([N+](=O)[O-])c(N3CCCC(C)C3)n2)c1 (stereo not drawn) |  | active: 25.9 µM
Oc1ccc2ccccc2c1N=Nc1ccc(F)cc1 | inactive: -6.38% | 
O=C(CSc1nnc(SCc2ccccc2)s1)N/N=C/C=C/c1ccco1 | inactive: 11.2% | 
CC(C)[N+]1(C)[C@@H]2CC[C@@H]1CC(OC(=O)C(CO)c1ccccc1)C2 (stereo partly drawn) | inactive: 16.9% | 
CCOC(=O)c1cnc(-n2nc(C)cc2C)nc1Nc1ccc(O)cc1 |  | active: 4.11 µM
CC(C)(C)OC(=O)C[C@@H]1C/C=C\C[C@@H](CC(=O)N[C@@H](CO)Cc2ccccc2)C(=O)N2CCC[C@@H]2COC1=O | inactive: -4.16% | 
COC(=O)[C@H]1C[C@@H]1[C@H](NC(=O)c1ccccc1)c1ccccc1 | inactive: 4.61% | 
COc1ccc(CCNc2nc(-c3ccc(O)cc3)cs2)cc1OC |  | active: 23.1 µM
C[C@H](CO)N1C[C@H](C)[C@@H](CN(C)Cc2ccncc2)Oc2c(NC(=O)C3CC3)cccc2C1=O | inactive: 18% | 
CC/C=C(\NC(C)=O)c1ccccc1 | inactive: 6.48% | 
C[C@@H](C(=O)Nc1ccc2ccccc2c1)[C@@H]1C[C@@]1(C)[C@@H](NC(=O)c1cccnc1)c1ccccc1 | inactive: -3.05% | 
Nc1ncnc2nc[nH]c12 | inactive: 2.24% | 
CCO[C@H]1OC(C(=O)NCc2ccccc2)=C[C@@H](C2CC2)[C@@H]1CCCO | inactive: 0% | 
C[C@H](CO)N1C[C@H](C)[C@@H](CN(C)C(=O)NC2CCCCC2)Oc2c(NS(=O)(=O)c3ccc(F)cc3)cccc2C1=O | inactive: 17.9% | 
CCOc1ccc(N2CC(C(=O)NCCN3C(=O)S/C(=C\c4cccnc4)C3=O)CC2=O)cc1 (stereo not drawn) | inactive: -17.4% | 
C[C@H]1CC[C@@]2(O[C@H](CCO)C[C@@H](O)[C@@H]2O)O1 | inactive: 25.2% | 
CC(NCCc1ccc(O)cc1)C(O)c1ccc(O)cc1 (stereo not drawn) | inactive: 19.6% | 
C=CCn1c(SCC(=O)c2cccs2)nc2sc(CC)cc2c1=O |  | active: 20.6 µM
O=C(NCC1CCCO1)/C(=C\c1ccc(Cl)cc1)NC(=O)c1ccccc1 (stereo not drawn) | inactive: 16.8% | 

SMILES | activity change, negative = inhibition | Potency
CN(C(=O)c1cccs1)c1ccc(OCC(=O)N2CCC(C(N)=O)CC2)cc1 |  | active: 14.6 µM
CC1(C)O[C@@H]2C[C@H]3[C@@H]4C[C@H](F)C5=CC(=O)C=C[C@]5(C)[C@H]4[C@@H](O)C[C@]3(C)[C@]2(C(=O)CO)O1 | inactive: 10.8% | 
C=CC[C@@H](CC(=O)N[C@H](CO)Cc1ccccc1)C(=O)N[C@@H](COC(=O)[C@@H](CC=C)Cc1ccc(F)cc1)Cc1c[nH]c2ccccc12 | inactive: -11.3% | 
COC(=O)[C@@H]1C[C@@]2(O)[C@@H](O)[C@@H](O)[C@@H](O)C[C@H]2N1Cc1ccc(C(F)(F)F)cc1 | inactive: 20.6% | 
CC(C)(C)OC(=O)C[C@@H]1C/C=C\C[C@H](CC(=O)N[C@H](CO)Cc2ccccc2)C(=O)N2CCC[C@H]2COC1=O | inactive: 4.57% | 
O=C(C1=C[C@@H](C2CC2)C[C@@H](OCCCCO)O1)N1CCN(Cc2ccccc2)CC1 | inactive: -9.4% | 
Cc1cccc(NC(=O)c2cc(-c3ccc(C)s3)nc3ccccc23)n1 |  | active: 6.51 µM
CC(C)(C)OC(=O)C[C@H]1C/C=C\C[C@@H](CC(=O)N(CCO)Cc2ccccc2)C(=O)N[C@H](C(C)(C)C)COC1=O | inactive: 5.38% | 
C[C@H]1COC(=O)[C@@H](Cc2ccc(F)cc2)C/C=C\C[C@H](CC(=O)NCCO)C(=O)N1 | inactive: 8.25% | 
CCO[C@@H]1OC(C(=O)N2CCCCCCC2)=C[C@H](c2ccc(C(F)(F)F)cc2)[C@H]1CCCO | inactive: 1.76% | 
CCOC(=O)c1nnn(-c2nc(OC)nc(N3CCCCC3)n2)c1-c1ccccc1 |  | active: 18.4 µM
OCC[C@H]1C[C@@H](O)[C@H](O)[C@]2(CCc3ccccc3O2)O1 | inactive: 2.76% | 
CC(=O)C[C@@H](O)CC(=O)[C@H]1OC(=O)[C@@H](C)C/C=C\Cc2ccccc21 | inactive: 2.64% | 
CC(=O)n1cc([C@H]2C=C(C(=O)N3CCOCC3)O[C@@H](OCc3ccc(CO)cc3)C2)c2ccccc21 | inactive: 0% | 
OCC[C@@H]1C[C@H](O)[C@@H](O)[C@]2(Cc3ccccc3CO2)O1 | inactive: -14.4% | 
COc1cc(-c2nnc(CSc3nc4ccccc4s3)o2)cc(OC)c1OC |  | active: 11.6 µM
CCOC(=O)[C@@H]1[C@H]2COc3cc(OC)ccc3[C@H]2N2C(=O)N(c3ccc(C(F)(F)F)cc3)C(=O)[C@@]12C | inactive: 12.5% | 
CCO[C@@H]1OC(C(=O)N2CCOCC2)=C[C@H](c2ccccc2)[C@H]1CCCO | inactive: 33.6% | 
COc1ccccc1NC(=O)N1CCc2[nH]c3ccc(Cl)cc3c2C1 |  | active: 16.4 µM
O=C(CNC(=O)/C(=C\c1ccccc1)NC(=O)c1ccc(Br)cc1)OCc1ccccc1 | inactive: 4.11% | 
O=C(C[C@H]1C/C=C\C[C@H](Cc2ccc(F)cc2)C(=O)OC[C@@H]2CCCN2C1=O)N[C@H](CO)Cc1ccccc1 | inactive: 7.24% | 
C[C@H](CCC(=O)NCC(=O)O)[C@H]1CC[C@H]2[C@@H]3[C@H](O)C[C@@H]4C[C@H](O)CC[C@]4(C)[C@H]3C[C@H](O)[C@]12C |  | inactive

SMILES | activity change, negative = inhibition | Potency
COc1cccc(C2c3[nH]c4ccccc4c3C[C@H]3C(=O)N(c4ccccc4C(=O)N4CCCC4C(=O)O)C(=O)N23)c1 (stereo partly drawn) | inactive: -4.21% | 
COc1ccc(OCCNC(=O)c2ccccc2OCC(=O)Nc2ccc(NC(C)=O)cc2)cc1 |  | active: 16.4 µM
COc1ccc(CC(=O)N[C@@H]2c3ccccc3CC[C@@H]2OCc2ccccc2)cc1 | inactive: 23.5% | 
C[C@H]1CN([C@@H](C)CO)C(=O)c2cccc(NS(=O)(=O)c3ccc(F)cc3)c2O[C@H]1CN(C)S(=O)(=O)c1cn(C)cn1 | inactive: 24.1% | 
CCOC(=O)[C@@H]1[C@H]2COc3ccccc3[C@H]2N2C(=O)N(c3ccc(C)cc3)C(=O)[C@]12C | inactive: -1.54% | 
CCOC(=O)[C@@H]1[C@H]2COc3ccccc3[C@H]2N2C(=O)N(c3cccc(F)c3)C(=O)[C@]12C | inactive: 6.15% | 
O=C(Nc1ccc(Cl)cc1)N1CCN(c2ccc3nnc(-c4ccc(F)cc4)n3n2)CC1 |  | active: 4.61 µM
COc1ccc(C2Nc3ccccc3C(=O)N2Cc2ccco2)cc1CN1C(=O)c2ccccc2C1=O (stereo not drawn) | inactive: -17.5% | 
Cc1cc(C(=O)N[C@@H](c2ccccc2)[C@]2(C)C[C@H]2[C@@H](C)C(=O)Nc2ccc3ccccc3c2)no1 | inactive: 8.75% | 
COC(=O)c1ccc(CN2[C@H](C(=O)OC)C[C@@]3(O)[C@@H](O)[C@@H](O)[C@@H](O)C[C@@H]23)cc1 | inactive: 12.9% | 
O[C@@H](c1cc(C(F)(F)F)nc2c(C(F)(F)F)cccc12)[C@H]1CCCCN1 | inactive: 15.1% | 
CC(C)(C)OC(=O)C[C@@H]1C/C=C\C[C@H](CC(=O)N(CCO)Cc2ccccc2)C(=O)N2CCC[C@@H]2COC1=O | inactive: -7.28% | 
C[C@@H](NC(=O)[C@@H]1Cc2ccccc2CN1C(=O)OC(C)(C)C)C(=O)NCc1ccco1 | inactive: 18.1% | 
NC(=O)c1ccsc1NC(=O)c1nc(-c2ccccc2)n(-c2ccccc2)n1 |  | active: 18.4 µM
CCc1nnc(NS(=O)(=O)c2ccc(N/C=C/C(=O)c3ccc(C)cc3)cc2)s1 | inactive: 25% | 
N=C1/C(=C/c2cccn2CCOc2ccccc2)C(=O)N=C2SC=C(c3ccccc3)N12 |  | active: 18.4 µM
CCCC1CCC(C(=O)n2nc(N)c3cc4ccc(OC)cc4nc32)CC1 (stereo not drawn) |  | active: 5.8 µM
O=C(NCc1ccccc1)C1=C[C@@H](c2csc3ccccc23)C[C@@H](OCCCCO)O1 | inactive: -21.6% | 
O=C(C[C@H]1C/C=C\C[C@@H](NC(=O)OCC2c3ccccc3-c3ccccc32)C(=O)O[C@@H](c2ccccc2)CNC1=O)N[C@H](CO)Cc1ccccc1 | inactive: -5.25% | 
OCC[C@H]1C[C@@H](O)[C@H](O)[C@]2(CCc3ccccc3CO2)O1 | inactive: 7.93% | 
COC(=O)[C@@H]1C[C@@]2(O)[C@@H](O)[C@@H](O)[C@@H](O)C[C@H]2N1CC(c1ccccc1)c1ccccc1 | inactive: 5.26% | 
CC1CN(c2nc3ccccc3nc2SCC(=O)Nc2ccc(F)cc2)CC(C)O1 (stereo not drawn) |  | active: 16.4 µM

From PubChem BioAssay AID504467 (National Center for Advancing Translational Sciences (NCATS), 2011)
